In the experiment the target is IAA7, BiFC fusion (Arabidopsis) (UniProt Q38825). As to the kind of experiment: split reporter; BiFC after transient expression in Nicotiana benthamiana leaves, confocal imaging; some TIR1-TIR1 samples with co-expressed Myc:ASK1 and 100 uM CHX.

Protein sequences, listed by entry. Tags and fused reporters are not part of them.
UniProt Q38825: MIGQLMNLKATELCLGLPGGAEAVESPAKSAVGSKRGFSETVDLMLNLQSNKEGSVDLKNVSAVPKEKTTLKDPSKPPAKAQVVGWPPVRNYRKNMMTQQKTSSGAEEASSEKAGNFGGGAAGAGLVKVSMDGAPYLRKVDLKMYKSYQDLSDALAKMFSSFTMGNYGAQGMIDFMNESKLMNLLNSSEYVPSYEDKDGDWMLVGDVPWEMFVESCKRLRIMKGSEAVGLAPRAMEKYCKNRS

The values that follow come from publication PMC5019376.

Results are given in words; binding and its absence hold for the method and conditions named. In cells and extracts the contact can be indirect. Some binding calls cover weakened binding; strength is not graded here.

“IAA7, BiFC fusion (from UniProt Q38825 1-243)”: the binding entry is on record as “binds”.
